About 14,000 (4.5%) of roughly 310,000 compounds showed an effect of 50% or more. Effects have a minus sign here. Some of the results follow.
target: human ether-à-go-go-related gene (hERG) potassium channel (human, UniProt Q12809); assay: primary screen, population patch clamp on CHO cells stably expressing hERG
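Further: peak tail current of the secondary pulse compared with the same well before compound.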

Chain of human ether-à-go-go-related gene (hERG) potassium channel (Q12809 whole entry, looked up): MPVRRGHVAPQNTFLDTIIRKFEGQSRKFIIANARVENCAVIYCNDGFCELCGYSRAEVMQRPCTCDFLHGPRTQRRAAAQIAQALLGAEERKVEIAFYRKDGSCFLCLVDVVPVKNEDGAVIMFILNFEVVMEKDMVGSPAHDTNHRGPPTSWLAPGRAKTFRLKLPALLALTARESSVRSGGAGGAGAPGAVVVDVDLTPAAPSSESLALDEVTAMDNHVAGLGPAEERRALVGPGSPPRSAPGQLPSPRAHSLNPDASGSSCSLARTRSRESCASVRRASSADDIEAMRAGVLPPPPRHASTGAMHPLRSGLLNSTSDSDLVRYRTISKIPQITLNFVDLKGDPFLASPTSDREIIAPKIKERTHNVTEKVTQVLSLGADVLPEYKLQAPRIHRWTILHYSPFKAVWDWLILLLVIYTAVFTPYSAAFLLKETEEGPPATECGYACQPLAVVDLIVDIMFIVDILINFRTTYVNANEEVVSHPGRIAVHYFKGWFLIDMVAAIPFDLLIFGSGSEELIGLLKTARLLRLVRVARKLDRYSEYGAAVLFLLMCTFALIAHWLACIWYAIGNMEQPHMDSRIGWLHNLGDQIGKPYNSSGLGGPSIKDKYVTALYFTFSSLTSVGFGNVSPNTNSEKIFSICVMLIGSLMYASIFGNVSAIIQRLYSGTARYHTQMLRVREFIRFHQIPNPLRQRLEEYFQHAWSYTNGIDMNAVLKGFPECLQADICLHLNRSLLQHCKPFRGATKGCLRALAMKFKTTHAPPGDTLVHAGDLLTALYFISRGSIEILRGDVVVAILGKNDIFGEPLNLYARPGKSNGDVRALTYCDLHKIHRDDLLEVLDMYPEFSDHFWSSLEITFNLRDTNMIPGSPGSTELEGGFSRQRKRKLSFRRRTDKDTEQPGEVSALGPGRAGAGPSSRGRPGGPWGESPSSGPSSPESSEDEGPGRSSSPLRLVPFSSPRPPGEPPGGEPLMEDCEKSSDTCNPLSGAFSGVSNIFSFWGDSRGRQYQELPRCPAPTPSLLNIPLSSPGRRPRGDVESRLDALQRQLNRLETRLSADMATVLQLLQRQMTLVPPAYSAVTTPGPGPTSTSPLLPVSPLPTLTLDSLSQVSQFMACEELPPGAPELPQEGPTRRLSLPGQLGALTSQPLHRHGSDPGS

Row | SMILES | hERG current change (%, negative = inhibition) at 10uM
1 | CCCc1nnc(SCC(=O)N2C(C)CCCC2C)n1CC1CCCO1 (centres unmarked) | -1.21%
2 | CN(C)S(=O)(=O)c1ccc(SCC(=O)N2CC(=O)Nc3ccccc32)nc1 | 4.23%
3 | CC(C)N1C(=O)CCC1C(=O)N1CCN(c2ccccn2)CC1 (centres unmarked) | 7.85%
4 | O=C(NCc1cccnc1)c1ccc(S(=O)(=O)N2CCCCCC2)cc1 | -14%
5 | COc1ccc(CCC(=O)OCC(=O)Nc2ccc(OC)c(OC)c2)cc1OC | 10.5%
6 | CNC(=O)COC(=O)/C=C/c1cn(-c2ccccc2)nc1-c1ccc(C)o1 | -2.06%
7 | Cc1ccccc1N1CCN(C2CCCN(C(=O)c3csc(C(C)C)n3)C2)CC1 (centres unmarked) | -43%
8 | O=C1COc2ccc(S(=O)(=O)Nc3ccc(OC(F)(F)F)cc3)cc2N1 | 13.3%
9 | COc1cccc(NC(=O)CSc2nc3ccccc3cc2Cc2ccccc2)c1 | -3.83%
10 | CN(C)S(=O)(=O)c1cc(NC(=O)CNCc2ccc(F)cc2)ccc1Cl.O=C(O)C(=O)O | -43.6%
11 | Cc1cc(C)c2c(=O)[nH]c(SCC(=O)Nc3ccc(Br)cc3)nc2n1 | 29.4%
12 | C=CCNCCOc1ccccc1-c1ccccc1.O=C(O)C(=O)O | -12.6%
13 | O=C(COC(=O)c1ccc(Br)o1)NC1CCCc2ccccc21 (centres unmarked) | 4.1%
14 | CCC1(CC)Cc2ccccc2C(=C(C#N)C#N)N1 | 6.52%
15 | O=C1CNC(=S)N1CCOc1ccccc1 | 11.3%
16 | O=C(O)c1ccc(S(=O)(=O)N(Cc2cccs2)CC2CCCO2)cc1 (centres unmarked) | -16.4%
17 | CCN1CCN(CCCOc2ccc(Cl)cc2Br)CC1.O=C(O)C(=O)O | -69%
18 | Cc1ccc(S(=O)(=O)N2CCN(CC(=O)N/N=C\c3ccncc3)CC2)cc1 | -66.8%
19 | CC(C)(CC(=O)O)CC(=O)N1CCN(c2nc3cc(Cl)ccc3s2)CC1 | 5.2%

Row | SMILES | hERG current change (%, negative = inhibition) at 10uM
20 | COC(=O)C1=C(C)N(Cc2ccco2)C(=O)/C1=C\c1ccc([N+](=O)[O-])cc1 | -22.7%
21 | N/C(=N\OC(=O)CSc1ccccc1)c1ccccn1 | 6.31%
22 | CC(C)C(=O)Nc1cccc(C(=O)NCc2ccc(S(N)(=O)=O)cc2)c1 | 3.17%
23 | COc1ccccc1N1CCN(C2CCN(C(=O)c3cccc(F)c3)CC2)CC1.O=C(O)C(=O)O | -33.1%
24 | O=[N+]([O-])c1ccc2nccn2c1 | -1.14%
25 | CCC(C)N1C(=O)NC(=O)C2(Cc3c(ccc4ccccc34)N(C)C2)C1=O (centres unmarked) | 2.18%
26 | CCc1nn(CC(=O)N2CCN(CC)CC2)c(=O)c2cccn12 | 9.19%
27 | CCOC(=O)c1c(C)sc2c1N(C(C)=O)c1cc(Cl)ccc1S2 | -8.01%
28 | COc1cc(C(=O)NNC(=O)COc2ccc(Cl)cc2)ccc1OCC(=O)N1CCOCC1 | -2.19%
29 | COc1cc(CN2CCNC(=O)C2CC(=O)N2CCc3ccccc3C2)cc(OC)c1 (centres unmarked) | -2.39%
30 | CCC(=O)OCc1c(C(F)(F)F)nn(C)c1Sc1ccc(F)cc1 | -8.79%
31 | Cc1ccccc1NC(=O)c1ccccc1NC(=O)CCC(=O)O | 10.4%
32 | O=c1c(CN2CCN(c3cccc(Cl)c3)CC2)coc2c(Cl)cc(Cl)cc12 | 12.7%
33 | Clc1cc(-c2ccc(/C=N/n3cnnc3)o2)ccc1Br | -2.25%
34 | O=c1[nH]c(SCc2ccccc2)nc2c1sc1ccccc12 | 6.18%
35 | CCOC(=O)C1=C(C)NC2=C(C(=O)CC(C)(C)C2)C1c1ccc(O)c(OCC)c1 (centres unmarked) | 12.3%
36 | CCN(CC)S(=O)(=O)c1ccc(OC)c(NC(=O)C(C)Oc2ccc3c(C)cc(=O)oc3c2)c1 (centres unmarked) | -26.3%
37 | COc1ccc(CCNC(=O)C(=O)NCC2OCCCN2S(=O)(=O)c2cc(C)ccc2C)cc1 (centres unmarked) | 7.16%
38 | COC(=O)c1ccc(C(=O)OC)c(NC(=S)N2CCCCC2)c1 | -24.9%

Row | SMILES | hERG current change (%, negative = inhibition) at 10uM
39 | CN1C(=O)/C(=C/c2cn(CC(=O)N3CCCCC3)c3ccccc23)c2ccccc21 | 10.8%
40 | COC(=O)c1ccc(NC(=S)NCCc2cccc(C)c2)cc1 | -2.3%
41 | O=C(O)CCc1ccc(-c2ccccc2)n1-c1ccc(C(=O)O)cc1 | 11.4%
42 | CCOc1ccc(C(C)C)cc1S(=O)(=O)n1ccnc1C | -8.28%
43 | CSc1nnc(C)c(/C=C/NOCc2cccc(F)c2)n1 | 4.03%
44 | Cc1cc2ncn(S(=O)(=O)N(C)C)c2cc1C | 16.1%
45 | CCc1ccc(-c2cn(C3CCCCC3)c(=S)[nH]2)cc1 | 3.42%
46 | Cc1cc(/C([O-])=C(/C(=S)Nc2ccccc2)[n+]2ccccc2)c(C)n1-c1ccccc1 | 6.17%
47 | CCOC(=O)CSc1nnc(NC(=O)c2ccco2)s1 | 11.8%
48 | COC(=O)c1c(NC(=O)c2ccccc2)sc2c1CC(C)(C)OC2 | -16.1%
49 | C[C@@H](NC(=O)OC(C)(C)C)c1nnc(S(=O)(=O)Cc2ccccc2)o1 | 8.29%
50 | CCOC(=O)c1cnc2c(C)c(Cl)ccc2c1Nc1ccc(S(=O)(=O)Nc2ncccn2)cc1 | 10.7%
51 | CCCCCOc1ccc(NC(=O)C(=O)NCCCn2ccnc2)cc1 | 2%
52 | COc1ccc(N(CC(=O)Nc2ccccc2Cl)S(=O)(=O)c2ccc(C)cc2)cc1OC | 4.36%
53 | Nc1cc(C(F)(F)F)ccc1N1CCOCC1 | 13.8%
54 | Cc1ccc(NC(=O)c2cc(S(=O)(=O)N3CCC4(CC3)OCCO4)ccc2F)cc1 | -2.9%
55 | CN(C)C(=O)COn1c(SCC(=O)N(C)C)nc2ccccc2c1=O | -4.61%
56 | C=CCN(CC=C)C(=O)C1CCN(S(=O)(=O)c2ccc(N3CCCC3=O)cc2)CC1 | 5.01%
